These are yes or no findings as the source states them, for the method shown. Binding seen in cells or lysates may run through a third protein. Some results given as binding are weak or reduced against the parent protein; the word gives no strength. For part of these data: Tags and fused reporters may be left off the sequences shown. One block for each molecule: values may come before it.
Columns and labels:
[1] = target: T1, SCE1-YFP (Arabidopsis thaliana) (UniProt Q42551); assay: co-IP; YFP fusion bait transiently expressed in Arabidopsis protoplasts; solubilised in IP buffer with 1% Triton X-100; GFP-Trap (YFP-Trap) beads; four washes; native proteins detected by immunoblotting
T1 sequence: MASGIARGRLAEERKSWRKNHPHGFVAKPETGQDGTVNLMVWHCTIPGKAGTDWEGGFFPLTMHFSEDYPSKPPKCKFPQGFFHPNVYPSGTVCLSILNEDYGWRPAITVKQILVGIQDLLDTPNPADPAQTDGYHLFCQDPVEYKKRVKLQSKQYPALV

Sequences of proteins named here, by UniProt entry; tags and fusion partners are left off. A change or cut given only in a name is not applied to a line headed by its entry. Residues count along the entry.
UniProt P55852, residues 2-100: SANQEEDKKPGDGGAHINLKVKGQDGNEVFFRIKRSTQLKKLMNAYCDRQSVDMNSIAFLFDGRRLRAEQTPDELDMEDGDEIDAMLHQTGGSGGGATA
UniProt Q9FLP6, residues 2-103: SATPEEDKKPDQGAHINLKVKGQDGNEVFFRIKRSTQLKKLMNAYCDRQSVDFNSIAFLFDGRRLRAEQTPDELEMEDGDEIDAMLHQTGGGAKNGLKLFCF
UniProt O81283: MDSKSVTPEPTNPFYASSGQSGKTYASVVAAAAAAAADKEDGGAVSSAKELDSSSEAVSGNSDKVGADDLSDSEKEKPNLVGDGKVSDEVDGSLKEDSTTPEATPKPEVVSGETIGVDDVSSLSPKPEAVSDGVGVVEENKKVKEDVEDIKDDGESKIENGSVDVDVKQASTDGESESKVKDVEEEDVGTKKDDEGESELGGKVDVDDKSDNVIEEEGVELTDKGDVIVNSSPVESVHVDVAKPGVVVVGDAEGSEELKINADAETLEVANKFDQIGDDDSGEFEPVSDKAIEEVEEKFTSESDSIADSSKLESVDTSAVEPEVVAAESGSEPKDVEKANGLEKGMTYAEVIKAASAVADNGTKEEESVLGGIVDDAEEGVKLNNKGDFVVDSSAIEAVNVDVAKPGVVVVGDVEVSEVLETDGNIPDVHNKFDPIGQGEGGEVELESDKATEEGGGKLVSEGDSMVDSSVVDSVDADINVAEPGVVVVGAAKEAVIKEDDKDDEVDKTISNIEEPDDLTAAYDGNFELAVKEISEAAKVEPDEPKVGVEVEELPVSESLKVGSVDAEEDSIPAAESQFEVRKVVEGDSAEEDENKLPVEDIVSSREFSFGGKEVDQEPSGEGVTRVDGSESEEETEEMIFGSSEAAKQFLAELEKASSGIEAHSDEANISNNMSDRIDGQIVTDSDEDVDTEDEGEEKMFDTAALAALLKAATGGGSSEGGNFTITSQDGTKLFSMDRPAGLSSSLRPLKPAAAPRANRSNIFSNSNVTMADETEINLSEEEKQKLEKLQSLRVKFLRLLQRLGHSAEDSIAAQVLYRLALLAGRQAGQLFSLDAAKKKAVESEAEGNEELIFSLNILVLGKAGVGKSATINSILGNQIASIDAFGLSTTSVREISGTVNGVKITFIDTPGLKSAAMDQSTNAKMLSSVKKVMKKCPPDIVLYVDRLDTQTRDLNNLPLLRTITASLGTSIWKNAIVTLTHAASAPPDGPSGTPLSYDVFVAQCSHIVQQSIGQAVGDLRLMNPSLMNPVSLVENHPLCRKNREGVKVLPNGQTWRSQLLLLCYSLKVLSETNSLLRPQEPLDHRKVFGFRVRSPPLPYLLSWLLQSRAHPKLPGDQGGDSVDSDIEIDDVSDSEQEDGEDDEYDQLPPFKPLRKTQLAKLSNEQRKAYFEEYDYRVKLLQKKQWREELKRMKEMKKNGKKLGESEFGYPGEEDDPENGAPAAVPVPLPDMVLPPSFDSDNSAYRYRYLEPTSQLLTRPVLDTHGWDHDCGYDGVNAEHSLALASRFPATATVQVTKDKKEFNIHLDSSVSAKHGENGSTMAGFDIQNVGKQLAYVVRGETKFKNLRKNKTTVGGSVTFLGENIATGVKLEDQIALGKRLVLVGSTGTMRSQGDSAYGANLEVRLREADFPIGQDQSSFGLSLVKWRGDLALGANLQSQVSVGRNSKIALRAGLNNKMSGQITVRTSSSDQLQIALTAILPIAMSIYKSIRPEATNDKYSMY
UniProt Q9SVC4, residues 1-35: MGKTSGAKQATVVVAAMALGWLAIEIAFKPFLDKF
UniProt Q9SLF3: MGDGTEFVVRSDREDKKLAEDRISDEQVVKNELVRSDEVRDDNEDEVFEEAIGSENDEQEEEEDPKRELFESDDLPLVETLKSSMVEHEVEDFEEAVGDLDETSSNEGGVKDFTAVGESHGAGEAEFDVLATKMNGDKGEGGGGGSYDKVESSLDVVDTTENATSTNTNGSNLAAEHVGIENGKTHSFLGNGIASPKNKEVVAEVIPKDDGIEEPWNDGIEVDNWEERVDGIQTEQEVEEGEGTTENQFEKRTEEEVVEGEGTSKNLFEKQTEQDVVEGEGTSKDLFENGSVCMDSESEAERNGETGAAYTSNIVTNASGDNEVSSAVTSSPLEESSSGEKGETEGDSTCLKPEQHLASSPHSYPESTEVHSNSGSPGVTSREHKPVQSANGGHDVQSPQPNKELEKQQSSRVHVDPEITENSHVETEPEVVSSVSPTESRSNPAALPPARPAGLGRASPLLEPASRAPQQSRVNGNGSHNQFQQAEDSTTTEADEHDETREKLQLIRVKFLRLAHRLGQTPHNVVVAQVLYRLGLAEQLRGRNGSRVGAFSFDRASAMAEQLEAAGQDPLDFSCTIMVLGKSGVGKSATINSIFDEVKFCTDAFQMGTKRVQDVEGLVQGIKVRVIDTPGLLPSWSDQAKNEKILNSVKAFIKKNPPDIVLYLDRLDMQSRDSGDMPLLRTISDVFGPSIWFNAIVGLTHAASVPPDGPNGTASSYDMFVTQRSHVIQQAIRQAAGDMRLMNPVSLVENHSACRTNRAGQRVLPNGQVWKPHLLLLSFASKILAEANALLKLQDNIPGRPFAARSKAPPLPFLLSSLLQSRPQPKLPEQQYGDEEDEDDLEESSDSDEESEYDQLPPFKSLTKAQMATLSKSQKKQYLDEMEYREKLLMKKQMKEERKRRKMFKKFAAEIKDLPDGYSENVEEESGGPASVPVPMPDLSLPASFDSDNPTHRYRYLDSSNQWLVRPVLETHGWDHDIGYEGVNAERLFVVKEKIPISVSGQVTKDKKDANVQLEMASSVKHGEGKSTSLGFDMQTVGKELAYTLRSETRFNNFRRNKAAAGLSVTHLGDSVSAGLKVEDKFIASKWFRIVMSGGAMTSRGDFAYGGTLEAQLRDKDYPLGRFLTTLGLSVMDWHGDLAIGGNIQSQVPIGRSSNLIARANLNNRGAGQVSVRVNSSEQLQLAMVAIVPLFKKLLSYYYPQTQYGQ

[2] = target: YFP-SUMO1 (Arabidopsis thaliana) (UniProt P55852); assay: as above
[3] = target: T2, YFP-SUMO3 (Arabidopsis thaliana) (UniProt Q9FLP5); assay: as above
T2 sequence: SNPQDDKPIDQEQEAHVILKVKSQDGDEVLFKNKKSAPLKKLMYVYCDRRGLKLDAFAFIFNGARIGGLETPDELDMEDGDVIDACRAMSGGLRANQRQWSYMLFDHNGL

[4] = target: YFP-SUMO2 (Arabidopsis thaliana) (UniProt Q9FLP6); assay: as above
[5] = target: T3, SCE1-cYFP (Arabidopsis thaliana) (UniProt Q42551); assay: split reporter; BiFC: Arabidopsis protoplasts co-transfected with two constructs bearing nYFP and cYFP; overnight incubation; YFP imaged by confocal microscopy
T3 sequence: T1 sequence

[6] = target: T2, YFP-SUMO3 (Arabidopsis thaliana); assay: co-IP; YFP fusion bait co-expressed with Toc33-HA in Arabidopsis protoplasts; solubilised in IP buffer with 1% Triton X-100; GFP-Trap (YFP-Trap) beads; four washes; immunoblotting

Molecule: native Toc159 (from UniProt O81283 1-1503) (receptor)
binding [1]: binds | binding [2]: binds weakly | binding [3]: binds | binding [4]: binds weakly

Molecule: ΔOEP7-nYFP (from UniProt Q9SVC4 1-35) (domain or fragment)
binding [5]: no binding

Molecule: native Toc132 (from UniProt Q9SLF3 1-1206) (receptor)
binding [1]: binds

B1: native Tic110 (protein, UniProt Q8LPR9 52-1016)
chain: SAASSDQLSVSTQAKNPGIHGNKKELTGLQPIVEKMTPPVRLATSAVVLAASLATGYGLGLRLAGSRNIAFGGAAVAGAAGGAVVYALNSAVPEVAAISLHNYVAEFEDPASVTKDDVEKIADRYGVNKGDEAFQAEICDIYCRYVTSVLPTEGQSLKGDEVAKIVKFKNALGIDEPDAAAMHMEIGRRIFRQRLETGEREGDAEQRRAFMRLVYVSALVFGDASSFLLPWKRVLKVTDAQVEIAIRENAKQLYAERLKLVGRDINVENLVDLRKSQLSFKLSDELAEDLFREHTRKVVVENISSALSILKSRTRAAKSLASVVEELEKVLEFNNLLVSLKSHSEADQFARGVGPISLIGDESDFERRMDDLKLLYRAYVTDALSGGRLEENKLVAMSQLRNILGLGKREAEAISVDVTSKSYRKRLANAVSSGDLEAQDSKAKYLQKLCEELHFDAQKAGAIHEEIYRQKLQQCVTDGELSDDNVAALLRLRVMLCIPQQTVDTAHAEICGTIFEKVVRDAISSGVDGYDAETRKSVRKAAHGLRLSRETAMSIASKAVRRVFTNYIRRARAAENRTDSAKELKKMIAFNTLVVTEMVADIKGESSDKAPEEDPVQEKEEDDEDEEWGSLESLRKTRPDKELAEKMGKPGQTEITLKDDLPDRDRIDLYKTYLLYCVTGEVTRIPFGAQITTKRDDSEYLLLNQLGGILGLSSKEIVNIHVGLAEQAFRQQAEVILADGQLTKARVEQLDELQKQVGLPQPQAEKVIKNITTTKMANAIETAVNQGRLNIKQIRELKEANVSLDSMIAVSLREKLFKKTVSDIFSSGTGEFDETEVYQTIPSDLSIDVEKAKRVVHDLAQSRLSNSLVQAVALLRQRNSKGVVLSLNDLLACDKAVPAEPMSWEVSEELSDLYAIYSKSDPKPAPEKVLRLQYLLGIDDSTATALREMEDGALSSAAEEGNFVF
binding [1]: no binding

B2: nYFP-Toc34 (receptor, UniProt Q38906 1-313)
chain: MAALQTLREWIGIQQFPPATQSKLLEILGKYKEEDVSSLTVLVMGKGGVGKSSTVNSVIGEKAAAVSTFQSEGLRPTLVSRTRSGFTLNIIDTPGLIEGGYVNDQAINIIKRFLLNMTIDVLLYVDRLDVYRVDDLDRQVVGAITDAFGKEIWKKSALVLTHAQFSPPDGLNYNHFVSKRSNALLKVIQTGAQLKKQDLQGFSIPVILVENSGRCHKNESDEKILPCGTSWIPNLFNKITEISFNGNKAIHVDKKLVEGPNPNERGKKLIPLMFAFQYLLVMKPLVRAIKSDVSRESKPAWELRDSGLASRRS
binding [5]: binds

B3: Toc33-HA (receptor, UniProt O23680 1-297)
chain: MGSLVREWVGFQQFPAATQEKLIEFFGKLKQKDMNSMTVLVLGKGGVGKSSTVNSLIGEQVVRVSPFQAEGLRPVMVSRTMGGFTINIIDTPGLVEAGYVNHQALELIKGFLVNRTIDVLLYVDRLDVYRVDELDKQVVIAITQTFGKEIWCKTLLVLTHAQFSPPDELSYETFSSKRSDSLLKTIRAGSKMRKQEFEDSAIAVVYAENSGRCSKNDKDEKALPNGEAWIPNLVKAITDVATNQRKAIHVDKKMVDGSYSDDKGKKLIPLIIGAQYLIVKMIQGAIRNDIKTSGKPL
binding [6]: binds

Continued, values first:

binding [5]: binds
Molecule: nYFP-Toc159 (from UniProt O81283 1-1503) (receptor)

binding [5]: binds
Molecule: nYFP-Toc132 (from UniProt Q9SLF3 1-1206) (receptor)

binding [5]: binds
B4: nYFP-Toc33 (receptor, UniProt O23680 1-297)
chain: B3 chain

— publication PMC8497055
